PubChem BioAssay AID602233 (National Center for Advancing Translational Sciences (NCATS), 2012)
Out of some 380,000 compounds screened, about 170 (0.045%) were called active. This list was built around the results that the source calls inconclusive (neither active nor inactive); the mix of calls is not that of the screen. Calls come from the whole dose curve; as a rule, active = well fitted inhibition curve with a large enough effect; inconclusive = small, poorly fitted or top-dose-only effect; inactive = no such curve, though single readings can be large or run the other way. Potencies of inconclusive entries are doubtful fits and often do not repeat.

Each molecule was assayed against Phosphoglycerate kinase, glycosomal (Trypanosoma brucei brucei) (UniProt P07378) (assay: qHTS Assay to Find Inhibitors of Phosphoglycerate Kinase). Conditions: PGK/GAPDH coupled, Kinase-Glo luminescence, 60 min; series mostly up to 57.5 µM.
Description: Several species of the Trypanosomatidae family of parasitic protozoans cause a spectrum of diseases throughout the tropical and subtropical world. Sleeping sickness, caused by two subspecies of Trypanosoma brucei, is endemic to areas of sub-Saharan Africa, while Chagas disease, a manifestation of Trypanosoma cruzi infection, is prevalent throughout Central and South America. In addition, many species of Leishmania are responsible for a range of cutaneous and visceral diseases, causing ulcers, destructive lesions and kalaazar, a lethal infection of the viscera. Collectively, these organisms infect 30 million people worldwide (~500 million live in endemic areas), and account for ~130,000 deaths annually. Given their debilitating and prevalent nature, trypanosomatid parasites impose a heavy medical, economic and social burden on entire populations, primarily in the developing world. The problem is further exacerbated by the fact that existing treatments have progressed little in the past 50 years, and current drugs show high toxicity and poor efficacy. […] Blood-stream stages of T. brucei are entirely dependent on glycolysis as a source of ATP, and the tricarboxylic acid cycle and oxidative phosphorylation are both repressed. Glycolysis in axenically cultured T. cruzi, representing the intracellular pathogenic stage, is also essential for these parasites. […] Previous studies have shown that the glycolytic enzyme, phosphoglycerate kinase (PGK), is a viable target for drugs to kill these parasites. […] NIH Molecular Libraries Probe Production Network [MLPCN] NIH Chemical Genomics Center [NCGC] MLPCN Grant: R03 MH093212 PI Name: Malcolm Walkinshaw, University of Edinburgh
3ul of substrate/PGK buffer (columns 1,2,5-48) are dispensed into Greiner white solid bottom 1536-well assay plates; columns 3-4 receive only TEA buffer as 0x PGK controls. Compounds are then transferred via Kalypsys pin tool equipped with 1536-pin array (10nl slotted pins, V&P Scientific, San Diego, CA). Following addition of compound, 1ul of GAPDH (100nM final concentration, all columns) is added to initiate the reaction (this upstream coupling enzyme is necessary for in-well production of PGK substrate, 1,3-bisphosphoglycerate (1,3-BPG), which is unstable and not commercially available). The plates are then incubated at room temperature for 60 minutes. Kinase-Glo Plus reagent is added (2ul) and plates incubated for 10 minutes, before being transferred to a ViewLux high-throughput CCD imager (PerkinElmer) wherein single end-point measurements of luminescence are acquired using a clear filter. All reagents are diluted in an assay buffer consisting of 100mM TEA (pH 7.6), 5mM MgCl2 and 0.01% Tween-20.
Note: nearly all actives have a fitted effect of over 60% in size.
Potency is the fitted concentration of half-maximal effect; tags give direction and shape of the fitted curve.

Potency, inconclusive:
COCCN(C(=O)COC(=O)c1cc2c(s1)CCC2)c1c(N)n(Cc2ccccc2)c(=O)[nH]c1=O 12.6 µM [inhibitor, partial curve, poor fit]
O=C(O)CSCC(=O)Nc1ccc(-c2nc3ccccc3s2)cc1 31.6 µM [inhibitor, partial curve, poor fit]
O=c1c2ccccc2nc2n1CCC2 39.8 µM [inhibitor, single point]
COc1ccc(Cl)cc1NC(=O)CCS(=O)(=O)c1ccc(Br)cc1 15.8 µM [inhibitor, partial curve]
O=C(Nc1cc2c(oc1=O)CCCC2=O)c1ccc(Cl)cc1 20 µM [inhibitor, partial curve]
O=C(O)C1Nc2c(O)cccc2C2C=CCC12 (centres undefined) 11.2 µM [inhibitor, partial curve]
O=C1C(Nc2ccc(O)cc2)=C/C(=N/S(=O)(=O)c2cccs2)c2ccccc21 31.6 µM [inhibitor, partial curve]
CCOc1ccc(-c2nc(SCC(=O)Nc3ccc(C)c(C)c3)n3[nH]c(=O)cc3n2)cc1 14.1 µM [inhibitor, partial curve, poor fit]
O=C(Nc1cccc(O)c1)C(=O)Nc1ccccn1 31.6 µM [inhibitor, single point]
CCS(=O)(=O)C1=NN2C(=N)/C(=C\c3ccc(SCc4ccco4)o3)C(=O)N=C2S1 39.8 µM [inhibitor, single point]
Cc1cc(NC(=O)CSc2ccc(-c3nc4cc(C)c(C)cc4[nH]3)cn2)no1 3.16 µM [inhibitor, partial curve, poor fit]
O=C1CSC(=S)N1/N=C/c1ccc(O)c(O)c1O 2.51 µM [inhibitor, full curve]
Cc1coc2c(C)c3oc(=O)c(CCC(=O)N[C@@H](C)C(=O)N[C@@H](Cc4ccccc4)C(=O)O)c(C)c3cc12 14.1 µM [inhibitor, partial curve]
Cc1ccn2cc(-c3ccc(O)c(O)c3)nc2c1 20 µM [inhibitor, single point]
O=C(O)c1cccc(-n2cccc2/C=N/O)c1 39.8 µM [inhibitor, single point]
COc1ccc(/C=C2\SC(=O)N=C2N)cc1OC 39.8 µM [inhibitor, single point]
COc1cc(SC)ccc1C(=O)NNC(=O)c1cc(C)oc1C 12.6 µM [inhibitor, partial curve, poor fit]
Cc1nn(-c2nc3ccccc3[nH]2)c(=O)c2ccccc12 8.91 µM [inhibitor, partial curve, poor fit]
COc1cccc(C(=O)Nc2nc3ccccc3[nH]2)c1 31.6 µM [inhibitor, partial curve, poor fit]
C=C(C)C(=O)Nc1cccc(C2=NOC3(C2)C[C@@H](C(N)=O)N(C(=O)CCCCC)C3)c1 (some centres undefined) 2.24 µM [inhibitor, full curve, poor fit]
Cc1ccc2nc(-c3ccccc3)cn2c1 28.2 µM [inhibitor, partial curve, poor fit]
COc1ccc(NC(=O)CSc2nc(NS(=O)(=O)c3ccccc3)cc(=O)[nH]2)cc1 35.5 µM [inhibitor, partial curve]
O=C1CCCC2=C1C(c1ccc(O)c(O)c1)c1c(ccc3ncccc13)N2 (centres undefined) 14.1 µM [inhibitor, partial curve, poor fit]
O=C(CCS(=O)(=O)c1ccc(Br)cc1)N1CCCCCC1 39.8 µM [inhibitor, single point]
COc1cc(C)c2c(c1C=O)Oc1c(c(C)c(O)c3c1C(O)OC3=O)OC2=O (centres undefined) 22.4 µM [inhibitor, partial curve]
Oc1c(Cl)cc(Cl)c(Cl)c1Cc1c(O)c(Cl)cc(Cl)c1Cl 39.8 µM [inhibitor, single point]
O=C(O)CC/C(=C\c1ccc(N2CCCC2)c([N+](=O)[O-])c1)c1nc2ccccc2s1 28.2 µM [inhibitor, single point]
O=C1Cc2cccc(=O)c(O)c2C(=O)O1 25.1 µM [inhibitor, single point]
O=C(COC(=O)C1CC(=O)N(Cc2ccco2)C1)c1ccc(OC(=O)c2ccco2)cc1 (centres undefined) 22.4 µM [inhibitor, partial curve, poor fit]
CCOC(=O)CNC(=O)c1sc(NC(=O)c2ccccc2F)nc1C 25.1 µM [inhibitor, partial curve, poor fit]
CCN1C(=O)/C(=C2/C=Cc3cc(C)ccc3N2CC)N(C)C1=S 20 µM [inhibitor, single point]
COc1ccc2nc(-n3c(O)c(C4=c5ccccc5=NC4=O)[nH]c3=S)sc2c1 28.2 µM [inhibitor, partial curve, poor fit]
CCOC(=O)C1Nc2ccc(C(=O)O)cc2C2C=CCC12 (centres undefined) 28.2 µM [inhibitor, partial curve]
Cc1ccc(CNC(=O)CCS(=O)(=O)c2ccc(Br)cc2)cc1 20 µM [inhibitor, partial curve]
COc1cc(/C=N/Nc2nc3ccccc3s2)cc([N+](=O)[O-])c1O 28.2 µM [inhibitor, single point]
CN(C)C(=O)c1ccc(N=Nc2c(O)c3ccccc3[nH]c2=O)cc1 14.1 µM [inhibitor, partial curve, poor fit]
CCCSc1ccc2nc(-c3ccccc3)cn2c1 22.4 µM [inhibitor, partial curve]
COc1ccc(-c2nc3ccccn3c2Cl)cc1 15.8 µM [inhibitor, partial curve, poor fit]
O=C(CN1C(=O)/C(=C/c2ccco2)SC1=S)Nc1ccc(O)c(C(=O)O)c1 7.08 µM [inhibitor, single point]
CC1=C(C(=O)Nc2ccccc2)C(c2ccc(Cl)cc2)n2c(s/c(=C/c3cccc(OCC(=O)O)c3)c2=O)=N1 (centres undefined) 39.8 µM [inhibitor, partial curve, poor fit]
CCN(CC)C(=O)CC(c1cc(OC)c(OC)c(OC)c1)c1c(OC)cc(OC)c2c(-c3ccccc3)cc(=O)oc12 (centres undefined) 28.2 µM [inhibitor, partial curve, poor fit]

Potency, active:
CCn1c(SCc2nc3sc(C(=O)O)c(C)c3c(=O)[nH]2)nc2ccccc21 20 µM
O=C(O)c1ccccc1NS(=O)(=O)c1ccc(N/N=C/c2ccc(O)c(O)c2)c([N+](=O)[O-])c1 35.5 µM
O=C(O)c1cccc(N2C(=O)/C(=C/c3ccc(SCc4ccc(Cl)cc4)o3)SC2=S)c1 35.5 µM

Potency, inactive:
Cc1ccc2nc(/C(C#N)=C/c3ccc(O)c(O)c3)[nH]c2c1
CSc1nsc(/C=C/Nc2ccc(F)cc2F)c1C#N
CCN1C/C(=C\c2cccc([N+](=O)[O-])c2)C(=O)/C(=C/c2cccc([N+](=O)[O-])c2)C1
COc1ccc(/C=C(/C(=O)Nc2ccccc2C(=O)NC(C)C)c2ccccc2)cc1
O=C(Nc1ncc([N+](=O)[O-])s1)c1cccc([N+](=O)[O-])c1
COc1ccc(-c2nc3ccc(C)cn3c2NCc2ccccc2)cc1SC1CCCCC1
COC(=O)/C=c1/s/c(=C(\C#N)C(=O)NCc2ccco2)n(-c2ccccc2)c1=O
Cc1cccc(/C=N/Nc2cc(N3CCOCC3)nc(N3CCOCC3)n2)c1
CCCC(=O)Nc1cc(C(=O)NCc2ccc(OC)cc2)ccc1S(=O)(=O)c1ccc(Cl)cc1
COc1ccc(/C=N/NC(=O)Cc2csc(Nc3cccc(C(F)(F)F)c3)n2)cc1C
CC(=O)c1cccc(NC(=O)c2noc3c2CCCC3)c1
COc1cc(Nc2nnc(C)s2)c(Cl)cc1Cl
CC(C)(C)OC(=O)N1CCC(c2c(C(=O)NCCN3CCC(Cc4ccccc4)CC3)cnn2-c2ccc(F)cc2)CC1
CCC(=O)NC(c1ccc(C)cc1)c1cc([N+](=O)[O-])c2cccnc2c1O (centres undefined)
COc1cc2c(cc1OC)C1Cc3ccc(OC)c(OC)c3CN1CC2 (centres undefined)
O=S(=O)(c1ccc(=S)[nH]c1)N1CCCCC1
C=CC[C@@H](CC(=O)N[C@@H](CO)Cc1ccccc1)C(=O)NC[C@H](OC(=O)[C@@H](CC=C)Cc1ccc(F)cc1)c1ccccc1
COC(=O)CN=Cc1c(C)[nH]n(-c2ccccc2)c1=O
COc1cc(C(=O)NC2CCN(C)CC2)ccc1Nc1ncc2c(n1)N(C1CCCC1)CCC(=O)N2C(C)C
O=C(NCCCN1CCN(CCCNC(=O)c2cccc([N+](=O)[O-])c2)CC1)c1cccc([N+](=O)[O-])c1
COc1ccc(NC(=O)C(C)N2Cc3ccccc3C2=O)cc1OC (centres undefined)
O=C(Cn1cc(S(=O)(=O)Cc2ccccc2F)c2ccccc21)Nc1ccc(F)c(Cl)c1
CCOc1cc(/C=N/Nc2nn3cnnc3c3ccccc23)ccc1O
Brc1ccc(C2Nc3cccc4cccc(c34)N2)o1
Cc1ccc(C)n1C1CCS(=O)(=O)C1 (centres undefined)
